Assay results reported in the BET-seq Pho4 binding data (Le et al. 2018).
Some of the results follow. These are noisy estimates, calculated here from bound and input reads.

These sequences were tested against T1, Pho4 (S. cerevisiae) (UniProt P07270) (assay: relative binding free energy (BET-seq); higher = weaker binding). Details: reference: library average.
T1 sequence: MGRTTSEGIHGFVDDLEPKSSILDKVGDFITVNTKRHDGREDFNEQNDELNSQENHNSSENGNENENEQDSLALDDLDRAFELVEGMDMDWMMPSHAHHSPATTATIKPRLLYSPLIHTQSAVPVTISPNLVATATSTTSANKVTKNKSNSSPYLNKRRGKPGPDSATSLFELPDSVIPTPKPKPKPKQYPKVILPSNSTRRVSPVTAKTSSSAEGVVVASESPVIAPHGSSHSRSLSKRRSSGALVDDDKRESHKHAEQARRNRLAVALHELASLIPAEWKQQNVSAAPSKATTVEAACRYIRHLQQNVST

Sequence	relative binding free energy
GCTTTCACGTGGGTCT	0.2 kcal/mol
AAGTTCACGTGGAGAG	0.29 kcal/mol
TTTAACACGTGGGGGC	-0.07 kcal/mol
TGGACCACGTGGGACG	-0.03 kcal/mol
TCTCGCACGTGGGGTT	-0.22 kcal/mol
TAAAACACGTGTGGAG	0.18 kcal/mol
CATGGCACGTGTAGGG	-0.14 kcal/mol
GTAATCACGTGTAGGA	0.23 kcal/mol
TGAAGCACGTGGTGCG	-0.2 kcal/mol
CTATTCACGTGTTTGG	0.25 kcal/mol
AGCCTCACGTGGGGTA	0.11 kcal/mol
TTCCTCACGTGAAGGG	0.37 kcal/mol
GGGATCACGTGTTTTA	0.26 kcal/mol
AGGTGCACGTGTTGAC	-0.04 kcal/mol
GACGTCACGTGTGGCG	0.14 kcal/mol
TGGAGCACGTGAGGGA	0.19 kcal/mol
TCGGTCACGTGCAGTG	0.02 kcal/mol
CGATGCACGTGTGGTG	-0.03 kcal/mol
CGGAGCACGTGGATTT	0.08 kcal/mol
TGAGACACGTGAAGGT	0.15 kcal/mol
AGGATCACGTGTAGTA	0.13 kcal/mol
GTGAGCACGTGAGATG	0.32 kcal/mol
ATTCACACGTGGTAGG	-0.16 kcal/mol
TTGAACACGTGAATAG	0.29 kcal/mol
TAGGACACGTGTTGTC	0.15 kcal/mol

Sequence	relative binding free energy
AGAGGCACGTGTGCTG	-0.08 kcal/mol
TCGGGCACGTGTAAGT	0.02 kcal/mol
GGAATCACGTGTGGTA	0.15 kcal/mol
ATGATCACGTGTGGCT	0.22 kcal/mol
GGGCGCACGTGGGCGA	-0.36 kcal/mol
AGGGACACGTGAGCTG	0.23 kcal/mol
TTGTTCACGTGAGTAT	0.39 kcal/mol
AGTTTCACGTGAGTCG	0.34 kcal/mol
GTTCTCACGTGATGGG	0.28 kcal/mol
GCTTGCACGTGTGTTT	0.06 kcal/mol
AGTCTCACGTGGGCGG	0.13 kcal/mol
TTCTTCACGTGGTTAT	0.15 kcal/mol
CATCGCACGTGGGTTT	-0.06 kcal/mol
TTGAGCACGTGGTGTA	-0.19 kcal/mol
GGTCACACGTGAAGGT	0.31 kcal/mol
ACGTGCACGTGAGTTT	-0.04 kcal/mol
GTTGTCACGTGTATCA	0.18 kcal/mol
GGAGTCACGTGCAGCG	0.21 kcal/mol
TGCGGCACGTGTGGGC	-0.01 kcal/mol
TTTGGCACGTGGGTAA	-0.23 kcal/mol
GGAGGCACGTGAGTGT	0.22 kcal/mol
TTTCGCACGTGGAGGC	0.01 kcal/mol
GTGTGCACGTGCGAGA	-0.04 kcal/mol
TTGAACACGTGGAATG	0.05 kcal/mol
TGGGTCACGTGGAGTG	0.16 kcal/mol

Sequence	relative binding free energy
TGGTGCACGTGCGAGA	-0.02 kcal/mol
CGGTACACGTGGGTTA	0.01 kcal/mol
GCAGGCACGTGGGGTG	-0.18 kcal/mol
GATTTCACGTGGTCGA	0.25 kcal/mol
GGTGCCACGTGGTGGC	-0.06 kcal/mol
TTTTCCACGTGGGTAA	0.03 kcal/mol
TTAGTCACGTGTGGTA	0.17 kcal/mol
GGCAACACGTGATGGT	0.18 kcal/mol
TGTCTCACGTGTTATT	0.2 kcal/mol
GTTCACACGTGTGGTT	0.18 kcal/mol
AGATTCACGTGAAGGT	0.35 kcal/mol
GTACGCACGTGGAAGG	0 kcal/mol
ATCGGCACGTGATCGT	0.04 kcal/mol
ATCTTCACGTGATGAG	0.34 kcal/mol
ATTGTCACGTGCAGAG	-0.01 kcal/mol
ATAGGCACGTGTTTAG	-0.16 kcal/mol
GAGGTCACGTGCGGGG	0 kcal/mol
TAGTGCACGTGCAATT	0.11 kcal/mol
GTCTTCACGTGGTGGG	0.3 kcal/mol
GTAAGCACGTGAGGTG	0.28 kcal/mol
GTAGGCACGTGTAATC	0.2 kcal/mol
TACTACACGTGGTTTT	0.01 kcal/mol
ATTTTCACGTGCAAGG	0.28 kcal/mol
